# ± gives the standard deviation of the averaged measurements. The full ranking holds about 33,000 sequences; the median of “E-score (dimensionless, -0.5 to 0.5)” is about -0.046, and the highest 2% start at about 0.36. The list shows a part of the results.
# System: T1, SpTbr T-box DNA-binding domain (GST fusion)
# T1 sequence: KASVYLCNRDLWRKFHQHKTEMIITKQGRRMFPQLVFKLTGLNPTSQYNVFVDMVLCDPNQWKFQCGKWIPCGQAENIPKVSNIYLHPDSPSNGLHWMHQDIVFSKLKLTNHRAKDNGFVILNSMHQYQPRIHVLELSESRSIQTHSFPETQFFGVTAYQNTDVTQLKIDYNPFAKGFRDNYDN
# Assay: PBM E-score of 8-mer (E-score (dimensionless, -0.5 to 0.5)); Tbr is Tbrain of the sea star Patiria miniata (Pm) or the sea urchin Strongylocentrotus purpuratus (Sp); higher = stronger binding preference; most listed sequences are background and not binding sites
# Conditions: the construct has about 5 more residues each side
# How it was run: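 GST-fused Tbr T-box DNA-binding domains (the whole T-box plus about five flanking residues) were expressed in BL21 E. coli at 20 °C and purified by glutathione affinity chromatography. Universal Agilent oligonucleotide arrays were made double-stranded by primer extension, incubated with 200 nM protein in PBS (pH 7.5), then scanned and quantified. Every ungapped 8-mer was scored from probe intensities. The Universal PBM Analysis Suite gave each word an enrichment E-score, averaged over duplicate arrays.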
row,Sequence,PBM E-score of 8-mer
1,CAAGCATC,-0.11 ± 0.078
2,ATCTGGTA,-0.262 ± 0.038
3,GTAAGTTA,-0.165 ± 0.12
4,CGTTATTA,-0.0775 ± 0.1
5,ACAAGGAC,-0.173 ± 0.021
6,CTCGTCTC,0.0515 ± 0.0079
7,CTCTTCAG,-0.161 ± 0.062
8,GCCGTTTA,0.0646 ± 0.08
9,CCTACGGA,-0.25 ± 0.0069
10,CGTTTGTA,0.0192 ± 0.0019
11,GAAGTGGC,0.26 ± 0.012
12,ATGTTCAC,0.295 ± 0.058
13,AGGCGCTG,0.225 ± 0.018
14,CCGACATC,-0.0547 ± 0.029
15,TATCCGCA,0.00769 ± 0.072
16,GAGAATCA,-0.052 ± 0.024
17,ATTCCAGA,-0.00543 ± 0.064
18,CATGGGGA,-0.317 ± 0.054
19,GATGTCAA,0.197 ± 0.0064
20,CATGCTCC,-0.0116 ± 0.078
21,AGTGCGGG,0.143 ± 0.0067
22,AGAACAGA,-0.267 ± 0.041
23,CTTTTGAC,0.144 ± 0.025
24,TGGAAAAA,-0.0445 ± 0.051
25,CGACCAAG,-0.0565 ± 0.0009

row,Sequence,PBM E-score of 8-mer
1,AGTACTAG,-0.27 ± 0.068
2,CCTCAGGC,-0.167 ± 0.051
3,CGATAAAA,0.0615 ± 0.11
4,ACCCTTAC,0.0719 ± 0.021
5,AACCTTGC,0.00568 ± 0.0057
6,CTTTCAAC,-0.0325 ± 0.08
7,GTCGTCCA,0.031 ± 0.034
8,ACATATGA,0.00819 ± 0.073
9,CGGACTCC,-0.284 ± 0.11
10,AGGGTTAG,-0.081 ± 0.019
11,AAGACCGG,-0.189 ± 0.056
12,CACGTCTG,0.268 ± 0.035
13,CAGCTAGG,0.101 ± 0.087
14,ACGTCACA,0.276 ± 0.012
15,CGATATAG,-0.0337 ± 0.026
16,CGGTGAAC,0.0226 ± 0.027
17,GGGCGACC,-0.122 ± 0.055
18,GCGGAACA,-0.0407 ± 0.0032
19,AAATACAC,0.0823 ± 0.03
20,CAACTGCA,-0.0857 ± 0.016
21,CTTTGTTA,0.0827 ± 0.039
22,CACGCTCG,0.225 ± 0.031
23,AGCGCCCC,0.149 ± 0.0046
24,ACCCGTCA,0.318 ± 0.013
25,AGTGCAAA,0.304 ± 0.058

row,Sequence,PBM E-score of 8-mer
1,ATTATGAC,-0.0939 ± 0.058
2,CGGGACCC,-0.304 ± 0.0023
3,CTTGAGGA,-0.241 ± 0.022
4,AATGGGAC,-0.00757 ± 0.023
5,CACGATCG,0.117 ± 0.061
6,GTGAGCAC,0.211 ± 0.045
7,CAGGTGCA,0.265 ± 0.028
8,CAACATAA,0.0107 ± 0.073
9,CAAATCGG,-0.0523 ± 0.043
10,AGTGGGTG,0.236 ± 0.038
11,AACCCTGG,0.0248 ± 0.023
12,CCTTGACA,0.24 ± 0.035
13,CTTTTTGA,0.184 ± 0.057
14,ACATATCT,0.0956 ± 0.0092
15,ACTTAGCC,-0.056 ± 0.0053
16,CGCTGTTA,0.0348 ± 0.018
17,AATGTGTG,0.4245 ± 0.0035
18,GTGTCGAA,0.349 ± 0.0077
19,AACAAAGG,-0.0402 ± 0.053
20,CCGACTTA,0.0269 ± 0.13
21,CCACCACA,0.131 ± 0.073
22,AGAGTCAG,-0.372 ± 0.056
23,ATTGTGTA,0.122 ± 0.027
24,AGCAGGAG,-0.218 ± 0.0031
25,AACCTAAA,0.0109 ± 0.031

row,Sequence,PBM E-score of 8-mer
1,AGATGATA,-0.078 ± 0.14
2,CACACTTC,0.4456 ± 0.0039
3,CATTGCCG,0.0537 ± 0.1
4,AGTAGACA,-0.0292 ± 0.034
5,CCCGTCAA,0.202 ± 0.034
6,AGGTACGA,-0.0328 ± 0.12
7,GAAGCCAC,-0.085 ± 0.12
8,AAACAGCT,0.0803 ± 0.013
9,GAAGCAGA,-0.06 ± 0.00081
10,GATGAATA,-0.0772 ± 0.011
11,CATGAGTC,-0.08024 ± 0.00076
12,TAGAGCCA,0.0709 ± 0.015
13,AATGAATC,-0.246 ± 0.019
14,CACTTCTG,0.309 ± 0.011
15,CATTTTTA,-0.178 ± 0.051
16,AGCTGCTA,0.124 ± 0.035
17,CACTAATC,0.12 ± 0.017
18,GCTACGAC,0.0563 ± 0.026
19,AACGACTC,-0.0378 ± 0.041
20,CAGCGCGC,0.0347 ± 0.044
21,ACCGGCAG,0.0149 ± 0.061
22,CTGGAAAC,-0.205 ± 0.064
23,GCTACACA,0.0072 ± 0.014
24,CTACATTC,-0.286 ± 0.017
25,GGAAAACC,0.00278 ± 0.019

row,Sequence,PBM E-score of 8-mer
1,GCCCGTCA,-0.0389 ± 0.012
2,CTATTCCC,-0.215 ± 0.049
3,ATTGGGAA,-0.0416 ± 0.0068
4,TGCTTTAA,-0.0209 ± 0.029
5,GACGTTCA,-0.000445 ± 0.014
6,GCGGCCCA,-0.3 ± 0.021
7,CCCTTACA,0.0713 ± 0.043
8,CCGAGTGC,-0.00521 ± 0.009
9,AATCCTGA,-0.0918 ± 0.0086
10,CATGTTCA,-0.0155 ± 0.047
11,ATTAGTAA,-0.227 ± 0.081
12,ATCGTTCG,0.122 ± 0.018
13,GAGCCCTA,-0.23 ± 0.011
14,CACGAATC,0.0953 ± 0.041
15,CGTATACA,-0.074 ± 0.0067
16,CATCCATC,-0.232 ± 0.06
17,GCGTCGAC,0.114 ± 0.082
18,GTTCTTGA,-0.146 ± 0.062
19,GGCCAAAA,-0.169 ± 0.019
20,AGATGCGG,-0.0902 ± 0.005
21,CACCATAG,0.176 ± 0.031
22,CATAACAC,0.405 ± 0.028
23,CCAACCTA,-0.218 ± 0.044
24,CATGCAAA,-0.213 ± 0.019
25,CATCTCAG,-0.117 ± 0.059

row,Sequence,PBM E-score of 8-mer
1,ACGACACC,0.419 ± 0.02
2,CAGCTGCG,0.123 ± 0.084
3,ACCGTAGA,-0.214 ± 0.048
4,AACCACCG,-0.212 ± 0.011
5,ACGCGGAA,-0.138 ± 0.009
6,CTATCGAA,-0.142 ± 0.098
7,GTACTTCA,-0.119 ± 0.025
8,AGCACTCA,0.079 ± 0.03
9,GACATTTA,-0.262 ± 0.0052
10,CATCATCA,0.103 ± 0.073
11,AAGGGCGG,-0.201 ± 0.031
12,CGTACACG,-0.0119 ± 0.045
13,CGTTGGAC,-0.0488 ± 0.1
14,AAAGAAGA,-0.132 ± 0.013
15,ACGGTGGC,0.126 ± 0.087
16,CCGGTATC,-0.0899 ± 0.063
17,AACGCAGG,-0.195 ± 0.075
18,ACCCGGTG,0.0464 ± 0.016
19,CAAATGGC,-0.179 ± 0.045
20,ACGATGAA,-0.2 ± 0.057
21,CGACGAAA,0.218 ± 0.0064
22,CGGTCTGC,-0.0345 ± 0.046
23,AATTCCAT,-0.0076 ± 0.035
24,ATTGTCCC,-0.129 ± 0.0043
25,GATAACCC,0.0355 ± 0.017

row,Sequence,PBM E-score of 8-mer
1,GACTTGGA,-0.167 ± 0.016
2,CTGAGGAA,-0.0516 ± 0.024
3,CTGCTATC,-0.0252 ± 0.0065
4,GGTCTTGA,-0.15 ± 0.037
5,AGGGTTAA,-0.126 ± 0.041
6,AATTCGGG,-0.213 ± 0.043
7,AAAGCCAG,-0.154 ± 0.021
8,AAAACGCA,-0.16 ± 0.07
9,ACATTTGC,0.00351 ± 0.022
10,ACAGAATG,0.00951 ± 0.021
11,ACAACCCG,0.159 ± 0.0093
12,GGCCGCTA,-0.0198 ± 0.018
13,ATAGTATC,-0.124 ± 0.037
14,AATGGACC,-0.2776 ± 0.0022
15,AGCAAGTA,-0.0132 ± 0.07
16,ACCTGATG,0.0514 ± 0.019
17,CATGACAA,0.224 ± 0.0033
18,GAGAATAC,-0.0812 ± 0.016
19,CCGCATGA,-0.203 ± 0.023
20,CCCCGTCC,-0.203 ± 0.015
21,AAGCCGCG,0.0748 ± 0.058
22,CAGCCAGG,-0.0906 ± 0.022

# Source: the supplement of paper PMC4166925
